# According to PubChem BioAssay AID1347073 (National Center for Advancing Translational Sciences (NCATS), 2019):
# The whole screen tested about 45,000 compounds, of which about 200 (0.44%) were called active. Another 7% or so got no clear call; they are omitted. Calls come from the whole dose curve; as a rule, active = well fitted activation curve with a large enough effect; inconclusive = small, poorly fitted or top-dose-only effect; inactive = no such curve, though single readings can be large or run the other way. The list shows a part of the results.
# Assay: qHTS of TDP-43 Inhibitors: NCGC Sytravon Library Screen; note: 0% is about no effect; nearly all actives have a fitted effect of over 55% in size
# Settings: yeast TDP-43 toxicity rescue, BacTiter-Glo growth, 24 h; series mostly up to 46.1 µM; growth rescue (activation): at the top concentration
# Summary of the method: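 TDP-43-expressing yeast, pregrown in raffinose, seeded at OD600 0.02 in galactose medium with compound for 24 hr at 30 deg C. Growth read by BacTiter-Glo luminescence, so rescue of toxicity appears as activation.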
row,Compound,growth rescue (activation)
1,COc1cccc(C2=NOC(C(=O)Nc3cccnc3Cl)C2)c1 (configuration not stated),inactive: -5.8%
2,Cc1cc(C)cc(NC(=O)Cc2ccc(-n3cccc3)cc2)c1,inactive: 7.97%
3,NC(=O)C1CCN(C(=O)c2cnn(-c3ccccc3)c2NC(=O)c2cccc(F)c2)CC1,inactive: 6.32%
4,CC1CCc2onc(C(=O)O)c2C1 (configuration not stated),inactive: 12.1%
5,CCOC(=O)C1(C)CCCN(C(=O)c2cc(C#N)cs2)C1 (configuration not stated),inactive: 8.15%
6,COc1ccccc1OCCn1c(=O)n(C)c2ccccc21,inactive: 6.31%
7,Cc1ccc(Nc2nnc(SC3CCOC3=O)s2)cc1 (configuration not stated),inactive: -6.95%
8,Cc1ccc(NC(=O)CCNS(=O)(=O)c2cccc3nonc23)cc1Cl,inactive: 3.64%
9,COc1cc(/C=C/C(=O)N2CCN(C(=O)/C=C/c3cc(OC)c(OC)c(OC)c3)CC2)cc(OC)c1OC,inactive: -0.636%
10,Cc1ccccc1NC(=S)NCCc1ccc(S(N)(=O)=O)cc1,inactive: 17.5%
11,Cc1cccc(N2CCN(C(=O)c3ccc4[nH]c(C)c(C)c4c3)CC2)c1C,inactive: 0.568%
12,Cn1c(Cc2ccccc2)nnc1SCC(=O)NC1CC1,inactive: -5.59%
13,CCc1nnc(SCC(=O)Nc2ccccc2)n1CC1CCCO1 (configuration not stated),inactive: -1.78%
14,COc1ccc(CNc2nc3ccccc3n2CCN2CCCCC2)cc1,inactive: 7.34%
15,O=c1oc2cc(O)ccc2cc1-c1nnc(Nc2ccccc2F)s1,inactive: 5.83%
16,Cc1ccc(C)c(NC(=O)C(C)N2C(=O)c3ccccc3C2=O)c1 (configuration not stated),inactive: 14.3%
17,CC(C)Oc1ccccc1C1Nc2ccccc2C(=O)N1c1ccc2c(c1)OCCO2 (configuration not stated),inactive: 2.32%
18,O=C(O)c1ccc2c(c1)S(=O)(=O)N=C1CCCCCN12,inactive: -25.4%
19,CC12CN3CC(C)(CN(C1)C3c1ccccc1Cl)C2O (configuration not stated),inactive: -37.4%
20,CCC(COC)NC(=O)CCc1nnc(Cc2cccc(C(F)(F)F)c2)o1 (configuration not stated),inactive: 2.27%
21,CC(NC(=O)c1cc(F)c(F)cc1Cl)C1CC2CCC1C2 (configuration not stated),inactive: 18.1%
22,Cc1nnc(SCC2=C(C(=O)O)N3C(=O)C(NC(=O)Cn4nc(C)c(Cl)c4C)C3SC2)s1 (configuration not stated),inactive: -2.83%

row,Compound,growth rescue (activation)
1,O=C(Nc1ccc(Cl)cc1)C1Cc2c(-c3ccc(Cl)cc3)ccnc2O1 (configuration not stated),inactive: -4.34%
2,COC(=O)c1ccc(C(=O)OC)c(NC(=S)N2CCN(C)CC2)c1,inactive: 1.01%
3,CCOC(=O)N1CCN(CC(O)COc2ccccc2C(C)(C)C)CC1 (configuration not stated),inactive: -7.94%
4,Cc1nn(C)cc1CNCc1c(C(=O)N2CCCCC2)nc2c(C)cccn12,inactive: 3.97%
5,Cc1cc(SCC(=O)NC2CC2)nc2ccccc12,inactive: 32.9%
6,CCC(C)NC(=O)Cn1c(=O)sc2ccccc21 (configuration not stated),inactive: 5.46%
7,Cc1ccc(NCc2nnc3n2CCCCC3)c(C)c1,inactive: -12.7%
8,NNC(=O)c1ccc(CSc2n[nH]c(=O)[nH]c2=O)cc1,inactive: -4.06%
9,O=C(Nc1ccc(Cc2ccc(NC(=O)C3CC3)cc2)cc1)C1CC1,inactive: 4.51%
10,Clc1ccc(SCc2cn3ccccc3n2)cc1,inactive: 16.7%
11,COc1ccc(/C=N/NC(=O)c2[nH]c3ccc(Br)cc3c2-c2ccccc2)c(C(=O)O)c1OC,inactive: -4.09%
12,CCOC(=O)Cc1csc(N/N=C/c2ccccc2)n1,inactive: 17.9%
13,O=C(Nc1cccc(Cl)c1)c1csc([C@@H]2O[C@H](CO)[C@H](O)[C@H](O)[C@H]2O)n1,inactive: 2.12%
14,CC(=O)Nc1cccc(-c2csc(C(O)c3ccccc3)n2)c1 (configuration not stated),inactive: -3.62%
15,O=C(COC(=O)C1C2CC3OC(=O)C1C3C2)Nc1cccc(C(F)(F)F)c1 (configuration not stated),inactive: 7.23%
16,O=C(CC(=O)Nc1nc(C23CC4CC(CC(C4)C2)C3)cs1)NCCO,inactive: 11.3%
17,CCOc1ccccc1NC(=S)Nc1ccc(S(N)(=O)=O)cc1,inactive: -0.249%
18,Cc1nn(S(=O)(=O)c2ccccc2)c(C)c1S(=O)(=O)N1CCOCC1,inactive: -13.8%
19,CCOc1ccc(S(=O)(=O)NCCC(=O)OCC(=O)NC(=O)c2cccn2C)cc1,inactive: 3.3%
20,O=[N+]([O-])c1ccc(COc2ccc(-c3[nH]ncc3-c3ccc(Cl)cc3)c(O)c2)cc1,inactive: 0.433%
21,COc1cc(C(=O)NC(=S)Nc2ccc3[nH]c(=O)[nH]c3c2)cc(OC)c1OC,inactive: -1.85%
22,CC(=O)Nc1ccc(NC(=O)C2(C)Cc3c(-c4ccccc4)ccnc3O2)cc1 (configuration not stated),inactive: -2.48%

row,Compound,growth rescue (activation)
1,O=C1CN(C(=O)COC(=O)[C@@H]2CCCN2S(=O)(=O)c2ccc(Cl)cc2)c2ccccc2N1,inactive: 21.1%
2,CCC(C)NC(=O)c1ccccc1NC(=O)CN(c1cc(C)ccc1OC)S(C)(=O)=O (configuration not stated),inactive: -2.69%
3,O=C(/C=C/c1ccco1)N(Cc1ccc(Cl)cc1)C1CCS(=O)(=O)C1 (configuration not stated),inactive: -28.4%
4,O=C(O)CCc1ccc(-c2cccs2)n1NC(=O)c1cccs1,inactive: -1.56%
5,COc1ccccc1OCCCOc1c(Cl)cc(C)cc1Cl,inactive: -7.88%
6,CCOc1ccc(CN(C)CC(=O)Nc2ccc(N3CCOCC3)cc2)cc1OC,inactive: 10.4%
7,COC(=O)c1ccc(Oc2nc(NC(C)C)nc(NC(C)C)n2)cc1,inactive: 1.98%
8,Cc1ccc(N2CC(C(=O)Nc3ccc(S(=O)(=O)Nc4nccs4)cc3)CC2=O)cc1 (configuration not stated),inactive: 18.1%
9,CC(=O)c1ccc(Cc2ccccc2)cc1,inactive: 13.1%
10,CCOc1ccc(/C=N/NC(=O)c2[nH]ncc2Br)c(O)c1,inactive: -14.4%
11,CCc1ccc2nc(SCC(=O)Nc3ccccc3N3CCOCC3)c(C#N)cc2c1,inactive: 2.13%
12,Cc1cccc(N2CCN(C(C)C(=O)N3CCc4ccccc43)CC2)c1C (configuration not stated),inactive: 12.8%
13,CC(NS(=O)(=O)c1ccc([N+](=O)[O-])cc1)C(=O)NN (configuration not stated),inactive: 19.5%
14,CCOc1ccc(NC(=O)N2CC(C)OC(C)C2)cc1 (configuration not stated),inactive: 4.07%
15,CC(OC(=O)c1ccccc1N1C(=O)C2C3CCC(C3)C2C1=O)C(=O)c1ccccc1 (configuration not stated),inactive: -3.11%
16,COc1ccc(-c2nc(C#N)c(N3CCC(C)CC3)o2)cc1,inactive: 7.37%
17,Cc1nn(C(=O)c2cccc([N+](=O)[O-])c2)c(C)c1Br,inactive: 0.226%
18,CC1(C)C=C(c2ccc(C=O)s2)CC(C)(C)N1C=O,inactive: 1.27%
19,CCC(C)NC(=O)C1c2ccccc2Oc2ccccc21 (configuration not stated),inactive: -5.08%
20,COc1ccc(CN(C)C(=O)c2oc3ccccc3c2CSC)cc1F,inactive: 9.46%
21,CC1(c2ccc(Cl)cc2)NC(=O)N(CN2CCOCC2)C1=O (configuration not stated),inactive: -4.25%
22,COC(=O)N/N=C(\C)c1ccc(C)c([N+](=O)[O-])c1,inactive: -2.67%

row,Compound,growth rescue (activation)
1,O=[N+]([O-])c1ccc(NCCCO)c(C(F)(F)F)c1,inactive: 16.7%
2,O=C(N/N=C/c1ccccc1[N+](=O)[O-])c1ccc2nc[nH]c2c1,inactive: 12.6%
3,Cc1ccc(N(C(C)C(=O)N2CCCC2)S(C)(=O)=O)cc1 (configuration not stated),inactive: 5.58%
4,O=C(NCCc1c[nH]c2ccc(Cl)cc12)c1ccc([N+](=O)[O-])cc1,inactive: -3.76%
5,COc1ccc(CCN(Cc2cccs2)S(=O)(=O)c2ccc(S(=O)(=O)N3CCC(C)CC3)cc2)cc1OC,inactive: 10.7%
6,Cc1cc(C)c[n+](C(C)C(=O)c2ccc(-c3ccccc3)cc2)c1 (configuration not stated),inactive: 16.3%
7,Cc1nc2ccc(C(=O)NCCc3c[nH]c4ccccc34)cn2c1N(C)C(=O)CCc1ccccc1,inactive: 1.79%
8,O=C(CN(CCc1ccccc1)Cc1ccccc1)Oc1ccccc1P(=O)(O)O,inactive: -5.61%
9,CCOc1ccc2nc(COC(=O)c3cccs3)c(C(=O)c3ccccc3)[n+]([O-])c2c1,inactive: -19.3%
10,Cc1cc(C(=O)COC(=O)C2=NN(c3ccccc3)C(=O)CC2)c(C)n1CC(F)(F)F,inactive: 4.74%
11,O=C(CCNS(=O)(=O)c1cccc2nsnc12)NCc1ccccc1,inactive: 8.4%
12,Cc1cc(C)n(C(=O)CNC(=O)C2COc3ccccc3O2)n1 (configuration not stated),inactive: -6.02%
13,COc1ccc(Br)cc1/C=N/N1C(=O)CSC1=S,inactive: 12.2%
14,Cc1ccc(-n2cc(CN3CCNC(=O)CC3)c(-c3ccc(F)cc3)n2)cc1,inactive: 34.8%
15,CCn1c(CCNC(=O)c2ccc(C)cc2)nnc1SCc1ccc(Cl)c(Cl)c1,inactive: 24.6%
16,COCCN(Cc1cn(C)nc1-c1ccccc1F)C(C)C,inactive: -19.7%
17,COc1ccc(OC)c(S(=O)(=O)N2CCC(C(=O)N(C)Cc3ccccc3)CC2)c1,inactive: 11.7%
18,COc1ccc2cc(C#N)c(SCC(=O)Nc3nonc3C)nc2c1,inactive: 26.3%
19,CC1CC(C)CN(C2CCCCC2NS(=O)(=O)c2ccc(Cl)cc2)C1 (configuration not stated),inactive: -15.7%
20,CC(NC(=O)COC(=O)COc1ccc(Cl)cc1)c1ccccc1 (configuration not stated),inactive: -9.43%
21,O=c1c(/C=N/O)coc2ccc(Cl)cc12,inactive: -93.5%
22,O=C(CCCCCNC(=O)c1ccccc1)N/N=C/c1ccco1,inactive: 1.46%

row,Compound,growth rescue (activation)
1,COc1ccc([N+](=O)[O-])cc1NC(=O)c1ccc(N(Cc2ccccc2Cl)S(C)(=O)=O)cc1,inactive: 21.3%
2,CCc1nc2c(OCC(=O)C(C)(C)C)cccn2c1N(C)C(=O)Nc1ccccc1OC,inactive: 5.5%
3,COc1ccc(C)cc1-n1[nH]nnc1=S,inactive: 3.12%
4,O=C(CSc1n[nH]c(-c2ccncc2)n1)Nc1ccc(F)cc1,inactive: -3.42%
5,CC(=O)c1cc2c(cc1NC(=O)CCn1cnnn1)OCO2,inactive: 5.59%
6,CS(=O)(=O)c1ccc2nc(NC(=O)CCS(=O)(=O)c3ccccc3)sc2c1,inactive: -8.78%
7,Cc1ccc(S(=O)(=O)CCC(=O)OCC(=O)c2c[nH]c3ccccc23)cc1,inactive: -3.1%
8,Cc1ccc(/C=C/C(=O)O)cc1S(=O)(=O)Nc1ccc2c(c1)OCO2,inactive: 12.2%
9,O=C(NCCN1C(=O)S/C(=C/c2cccnc2)C1=O)c1ccc(S(=O)(=O)N2CCCC2)cc1,inactive: 19.8%
10,COc1ccccc1CNC(=O)C1CCC(CNS(=O)(=O)c2ccc(C)cc2)CC1 (configuration not stated),inactive: 5.35%
11,Cn1c(NC(=O)C[n+]2cc(-c3ccc(Cl)cc3)n3c2CCC3)cc(=O)n(C)c1=O,inactive: -1.35%
12,CCOC(=O)c1c(NC(=S)NCC2CCCO2)sc(C)c1C (configuration not stated),inactive: 25.2%
13,COc1cc(NC(=O)c2cc(Br)cc(C)c2OC)ccc1NC(=O)C(C)C,inactive: 20.8%
14,COc1cc(CN2CCN(C(O)(c3ccccc3)c3ccccc3)CC2)cc(OC)c1OC,inactive: 3.97%
15,COc1ccc2cc(CCNS(=O)(=O)c3c(C)cc(C)cc3C)c(=O)[nH]c2c1,inactive: 0.0437%
16,Cc1ccccc1OCC1Cc2c(nc(N)c(C#N)c2N)O1 (configuration not stated),inactive: 12.5%
17,COCCn1c(SCC(=O)Nc2cccc(C)n2)nnc1-c1ccco1,inactive: 7.01%
18,O=C(NN1C(=O)/C(=C/C=C/c2ccco2)SC1=S)c1ccncc1,inactive: 4.87%
19,COc1ccc(C(=O)NNC(=O)CCCCC(=O)NNC(=O)c2ccc(OC)cc2)cc1,inactive: 6.16%
